Source: the supplement of paper PMC8728848
This is one part of the list.

Columns and labels:
Test in all cases: glycan array binding signal (z-score within array); higher = stronger binding
Settings in all cases: glycan notation: IUPAC condensed, linker removed
[1] = target: Gal3S6S(b1-4)GlcNAc
How it was run: (§1)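 Columns mapping to the same glycan were averaged after glycan names were converted to IUPAC-condensed notation. The data come from 3228 arrays in the Consortium for Functional Glycomics database, limited to those with an available protein sequence. Binding is reported as a within-array Z-score averaged across arrays of one protein sequence and across linkers.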

[2] = target: Gal3S6S(b1-4)GlcNAc6S
How it was run: as §1

[3] = target: Gal4S(b1-4)GlcNAc
How it was run: as §1

[4] = target: Gal4S6S(b1-4)GlcNAc
How it was run: as §1

[5] = target: Gal6P(b1-4)GlcNAc
How it was run: as §1

[6] = target: Gal6S(b1-3)GlcNAc
How it was run: as §1

[7] = target: Gal6S(b1-3)GlcNAc6S
How it was run: as §1

[8] = target: Gal6S(b1-4)Glc
How it was run: as §1

[9] = target: Gal6S(b1-4)Glc6S
How it was run: as §1

[10] = target: Gal6S(b1-4)GlcNAc
How it was run: as §1

[11] = target: Gal6S(b1-4)GlcNAc6S
How it was run: as §1

[12] = target: GalNAc(a1-3)Gal
How it was run: as §1

[13] = target: GalNAc(a1-3)GalNAc
How it was run: as §1

[14] = target: GalNAc(a1-3)GalNAc(b1-3)Gal(a1-4)Gal(b1-4)Glc
How it was run: as §1

[15] = target: GalNAc(a1-3)GalNAc(b1-3)Gal(a1-4)Gal(b1-4)GlcNAc
How it was run: as §1

[16] = target: GalNAc(b1-3)Gal
How it was run: as §1

[17] = target: GalNAc(b1-3)Gal(a1-4)Gal(b1-4)GlcNAc
How it was run: as §1

[18] = target: GalNAc(b1-3)Gal(a1-4)Gal(b1-4)GlcNAc(b1-3)Gal(b1-4)Glc
How it was run: as §1

[19] = target: GalNAc(b1-3)Gal(a1-6)Gal(b1-4)Glc
How it was run: as §1

[20] = target: GalNAc(b1-3)GalNAc
How it was run: as §1

[21] = target: GalNAc(b1-3)GlcNAc
How it was run: as §1

[22] = target: GalNAc(b1-4)Gal(b1-4)Glc
How it was run: as §1

[23] = target: GalNAc(b1-4)GlcNAc
How it was run: as §1

[24] = target: GalNAc(b1-4)GlcNAc(b1-2)Man
How it was run: as §1

[25] = target: GalNAc(b1-4)GlcNAc(b1-2)Man(a1-3)[GalNAc(b1-4)GlcNAc(b1-2)Man(a1-6)]Man(b1-4)GlcNAc(b1-4)GlcNAc
How it was run: as §1

[26] = target: GalNAc(b1-4)GlcNAc(b1-3)GalNAc(b1-4)GlcNAc
How it was run: as §1

[27] = target: GalNAc(b1-4)GlcNAc6S
How it was run: as §1

[28] = target: GalNAc(b1-6)GalNAc
How it was run: as §1

[29] = target: GalNAc3S(b1-4)GlcNAc
How it was run: as §1

[30] = target: GalNAc3S(b1-4)GlcNAc3S
How it was run: as §1

[31] = target: GalNAc3S(b1-4)[Fuc(a1-3)]GlcNAc
How it was run: as §1

[32] = target: GalNAc4S6S(b1-4)GlcNAc
How it was run: as §1

[33] = target: GalNAc6S(b1-4)GlcNAc
How it was run: as §1

[34] = target: Glc(a1-4)Glc
How it was run: as §1

[35] = target: Glc(a1-4)Glc(a1-4)Glc(a1-4)Glc
How it was run: as §1

[36] = target: Glc(a1-6)Glc(a1-6)Glc
How it was run: as §1

[37] = target: Glc(a1-6)Glc(a1-6)Glc(a1-6)Glc
How it was run: as §1

[38] = target: Glc(b1-4)Glc
How it was run: as §1

B1: Cohesin-mDCIR (Macaca mulatta) (protein)
chain: GLDDLDAVRIKVDTVNAKPGDTVRIPVRFSGIPSKGIANCDFVYSYDPNVLEIIEIEPGDIIVDPNPDKSFDTAVYPDRKIIVFLFAEDSGTGAYAITKDGVFATIVAKVKEGAPNGLSVIKFVEVGGFANNDLVEQKTQFFDGGVNVGDTTEPATPTTPVTTPTTTDDLDAASFQKYSQLLEKMTTKDLVHTTLECVKKNMTTEETAWSCCPKNWKPFSSNCYFISTESASWQKSEKDCARMEAHLLVINTREEQDFIFQNLQEESAYFVGLSDPEGQRHWQWVDRTPYNESSTFWHPHEPSDPDERCVVLNFRKTPKRWGWNDVHCIVHQRSVCEMMKIHLHHHHHH
In the case of B1, the “glycan array binding signal (z-score)” value [1] is reported as -0.105, the “glycan array binding signal (z-score)” value [2] is reported as 0.169 and the “glycan array binding signal (z-score)” value [3] is reported as -0.226. The “glycan array binding signal (z-score)” value [4] was -0.226, the “glycan array binding signal (z-score)” value [5] was 0.112 and the “glycan array binding signal (z-score)” value [6] was -0.437. The “glycan array binding signal (z-score)” value [7] was 2.23, the “glycan array binding signal (z-score)” value [8] was -0.237 and the “glycan array binding signal (z-score)” value [9] was -0.266. The “glycan array binding signal (z-score)” value [10] was -0.374, the “glycan array binding signal (z-score)” value [11] was 0.096 and the “glycan array binding signal (z-score)” value [12] was 0.417. The “glycan array binding signal (z-score)” value [13] was -0.028, the “glycan array binding signal (z-score)” value [14] was -0.325 and the “glycan array binding signal (z-score)” value [15] was -0.138. For the same binder, the “glycan array binding signal (z-score)” value [16] was 2.45, the “glycan array binding signal (z-score)” value [17] was 1.26 and the “glycan array binding signal (z-score)” value [18] was 0.862. For the same binder, the “glycan array binding signal (z-score)” value [19] was 2.77, the “glycan array binding signal (z-score)” value [20] was -0.19 and the “glycan array binding signal (z-score)” value [21] was 0.282. For the same binder, the “glycan array binding signal (z-score)” value [22] was -0.27, the “glycan array binding signal (z-score)” value [23] was 0.436 and the “glycan array binding signal (z-score)” value [24] was 0.485. The “glycan array binding signal (z-score)” value [25] was -0.067, the “glycan array binding signal (z-score)” value [26] was 0.414 and the “glycan array binding signal (z-score)” value [27] was 0.245. The “glycan array binding signal (z-score)” value [28] was -0.439, the “glycan array binding signal (z-score)” value [29] was -0.436 and the “glycan array binding signal (z-score)” value [30] was -0.312. For the same binder, the “glycan array binding signal (z-score)” value [31] was -0.411, the “glycan array binding signal (z-score)” value [32] was -0.28 and the “glycan array binding signal (z-score)” value [33] was 0.734. The “glycan array binding signal (z-score)” value [34] was -0.102, the “glycan array binding signal (z-score)” value [35] was -0.351 and the “glycan array binding signal (z-score)” value [36] was 0.1. For the same binder, the “glycan array binding signal (z-score)” value [37] was -0.217 and the “glycan array binding signal (z-score)” value [38] was 0.092.
